Measured values: PubChem BioAssay AID463173 (ICCB-Longwood Screening Facility, Harvard Medical School, 2010)
Among all 52,000 compounds or so, about 1,700 (3.3%) were called active. Rule as the data show it: active = survival mostly below about 52% (no sharp cut-off); inactive = mostly above about 56%. Some of the results follow.

These molecules were tested on Wild type (assay: growth inhibition of S. aureus wild type versus tarO mutant, primary screen, teichoic acid synthesis inhibitors, RN4220, OD600 (AID 463173)). Conditions: S. aureus RN4220 wild type/DeltatarO growth, OD600, 18 h, hits give low values, screened at 18.75 µg/mL (by protocol).
For CN(C(=O)c1ccc(NC(=O)c2ccco2)cc1)C1CCCCC1, the survival was inactive: 104%.
For O=C(Nc1c(C(=O)Nc2ccc(F)cc2)oc2ccccc12)c1cc2ccccc2o1, the survival was inactive: 41%.
Cc1ccc(C)c(CN2CCC(CNC(=O)Nc3ccc(Br)cc3F)CC2)c1 was tested, and the survival was inactive: 55%.
In the case of Cc1ccc(C)c(CNC(=O)c2ccc3c(c2)nc2n3CCCCC2)c1, the survival is reported as inactive: 81%.
C=CCNc1sc(C(=O)C(C)(C)C)c(N)c1C#N was tested, and the survival was inactive: 95%.
For Cc1cccc(-n2ccnc2SCC(=O)Nc2ccc(F)cc2F)c1C, the survival was inactive: 71%.
With Cc1ccc(Nc2nc(C)cs2)cc1 the survival was inactive: 95%.
For Cc1cc(Oc2c(C(F)(F)F)oc3c(CN4CCC(C)CC4)c(O)ccc3c2=O)cc(C)c1Cl, the survival was inactive: 70%.
With O=C(Cn1c(=O)oc2cc(S(=O)(=O)N3CCCCCC3)ccc21)NCc1ccccc1Cl the survival was inactive: 71%.
In the case of Cc1ccc(S(=O)(=O)NC(=O)CC#N)cc1, the survival is reported as inactive: 118%.
O=C(Nc1cccnc1)c1cccc(C(=O)Nc2cccnc2)c1 was tested, and the survival was inactive: 117%.
C[C@H](NC(=O)OC(C)(C)C)c1nnc(SCc2c(F)cccc2Cl)o1 was tested, and the survival was inactive: 80%.
With CCC(=O)Nc1nc(-c2ccc(C)c(C)c2)cs1 the survival was inactive: 108%.
In the case of CCOC(=O)c1ccc(N2N=C(C(F)(F)F)CC2=O)cc1, the survival is reported as inactive: 89%.
For CCc1ccc(NC(=O)Cn2nc3c4ccccc4n(Cc4ccccc4)cc-3c2=O)cc1, the survival was inactive: 84%.
In the case of CCc1nc2ccc(C(=O)N3CCN(c4cccc(C)c4C)CC3)cc2nc1CC, the survival is reported as inactive: 71%.
In the case of Cc1ccc(-c2nc3c4ccccc4[nH]c(=O)n3n2)cc1, the survival is reported as inactive: 64%.
In the case of CCN(C(=O)/C=C/c1cc(OC)c(OC)c(OC)c1)C1CCCCC1, the survival is reported as inactive: 107%.
O=C(c1ccc(CSc2nc3ccncc3n2Cc2ccc(F)cc2)cc1)N1CCCCCC1 was tested, and the survival was inactive: 77%.
COCCCNC(=O)c1cc2c(=O)oc3ccc(C)cc3c2s1 was tested, and the survival was inactive: 79%.
In the case of CCOc1ccc(-c2cc(OC(=O)c3ccc(OC)cc3)c3c(C)oc(C)c3c(=O)c2)cc1, the survival is reported as inactive: 70%.
In the case of COc1cc2nc(C3CCC3)n(NC(=O)COc3ccccc3)c(=O)c2cc1OC, the survival is reported as inactive: 105%.
In the case of O=C1CC(c2cccc(O)c2)c2c(nc(SCc3ccccc3F)[nH]c2=O)N1 (stereo not given), the survival is reported as inactive: 107%.
With CCOc1ccc(C(=O)N(Cc2sccc2C)C2CCS(=O)(=O)C2)cc1 (stereo not given) the survival was inactive: 94%.
In the case of CN(C)C(=O)CN1CCC(N2CCCCC2)CC1, the survival is reported as inactive: 99%.
For CCOc1ccccc1CNC(=O)c1cc2n(n1)CCCN(Cc1ccc(C)cc1)C2=O, the survival was inactive: 88%.
In the case of CCc1ccccc1NC(=O)Nc1ccc2c(c1)N(CC)C(=O)c1ccccc1S2, the survival is reported as inactive: 63%.
CCOc1ccc(NC(=O)CSc2nc(C)c(C(=O)Nc3ccccc3)c(-c3ccc(Cl)cc3)c2C#N)cc1 was tested, and the survival was inactive: 94%.
For CCc1cccc(-n2c(C)nc3c(cnn3-c3ccc(C)c(C)c3)c2=O)c1, the survival was active: 2%.
O=C(Nc1ccc(OC(F)(F)F)cc1)c1nc2ccccc2nc1N1CCCCC1 was tested, and the survival was inactive: 138%.
For COc1cc(OC)c(NC2(c3ccccc3)C(=O)c3ccccc3C2=O)cc1Cl, the survival was inactive: 65%.
For CCn1c2ccccc2c2cc(CN3CCN(Cc4ccccc4Cl)CC3)ccc21, the survival was active: 1%.
For COc1cccc(NC(=O)CSc2nc3cc(OC)c(OC)cc3c3nc(-c4ccccc4)nn23)c1, the survival was inactive: 68%.
For CCCCc1nn2c(=O)cc(COC(=O)c3cccc(NC(=O)CCc4ccccc4)c3)nc2s1, the survival was inactive: 81%.
With CCOC(=O)c1ccc(NC(=O)/C(C#N)=C/c2ccc(OC)cc2)cc1 the survival was inactive: 79%.
For S=c1nc(CNc2ccccc2)[nH][nH]1, the survival was inactive: 95%.
In the case of O=C(CSc1nccc(=O)[nH]1)Nc1cccc2ccccc12, the survival is reported as inactive: 105%.
For CCc1ccc(-n2c(=O)c3c(C)c(C)sc3n(CC(=O)NCc3ccc(C)cc3)c2=O)cc1, the survival was inactive: 138%.
With O=S(=O)(NCc1nc2cccnc2n1Cc1ccccc1)c1ccc2c(c1)CCCC2 the survival was inactive: 80%.
In the case of N#C/C(=C/c1ccc(Cl)cc1)c1nc(-c2ccc(Br)cc2)cs1, the survival is reported as inactive: 83%.
For CCCN(CCC)C(=O)Cn1c(=O)n(-c2ccccc2)c(=O)c2c3c(sc21)CCCC3, the survival was inactive: 82%.
With COc1cc(/C=C(\C#N)c2nc3ccccc3[nH]2)cc(Cl)c1OCc1ccccc1Cl the survival was inactive: 76%.
For Cc1ccc(CSc2oc(-c3ccco3)nc2S(=O)(=O)c2ccc(C)cc2)cc1, the survival was inactive: 62%.
COc1cc2c(cc1OC)C(Cc1ccc(O)cc1)N(C)CC2 (stereo not given) was tested, and the survival was inactive: 99%.
With Cc1[nH]c2ccc(-c3nnc(SCCC#N)n3C)cc2c1C the survival was inactive: 113%.
In the case of O=C(CCC1N=C2c3ccccc3N=C(SCc3ccc(Cl)cc3)N2C1=O)NCCc1ccccc1 (stereo not given), the survival is reported as inactive: 93%.
For Cc1ccc(-c2cc(-c3ccc4c(c3)OCO4)c(C#N)c(N)n2)cc1, the survival was inactive: 98%.
For O=C(NC1CSC/C1=N\O)c1ccccc1 (stereo not given), the survival was inactive: 91%.
With CS(=O)(=O)c1ccc2nc(NC(=O)c3ccccc3)sc2c1 the survival was inactive: 111%.
In the case of COc1cc2nc(SCC(=O)Nc3c(C)cc(C)cc3C)n3nc(CCn4c(C)nc5ccccc54)nc3c2cc1OC, the survival is reported as inactive: 91%.
With CCOC(=O)c1c(S(=O)(=O)NCC(=O)N2CCN(c3ccccc3)CC2)c(C)n(C)c1C the survival was inactive: 112%.
For Fc1ccc(C(NCCc2ccc(Cl)cc2)c2nnc(-c3ccccc3)o2)c(Cl)c1 (stereo not given), the survival was active: 3%.
For COc1ccccc1CNC(=O)CCn1c(=O)c2ccccc2n(CC(=O)Nc2ccc(C)cc2Cl)c1=O, the survival was inactive: 110%.
In the case of Cc1c(NC(=O)Nc2ccc(Br)cc2F)sc2nc3n(c(=O)c12)CCC(C)CC3 (stereo not given), the survival is reported as inactive: 92%.
CCCn1c2ccccc2c2cnn(CC(=O)N(C)c3ccccc3CC)c(=O)c21 was tested, and the survival was inactive: 72%.
With CC(=O)NCC(c1ccc2c(c1)OCO2)N1CCN(c2ccccc2)CC1 (stereo not given) the survival was inactive: 69%.
With CC(=O)Nc1ccc(-c2nc3cc(Cl)ccc3o2)cc1 the survival was inactive: 94%.
In the case of CCc1cccc(C)c1NC(=O)c1cc(S(=O)(=O)NCc2ccccc2Cl)ccc1F, the survival is reported as inactive: 113%.
For CCCSCCCNC(=O)C1CCCN(c2nn3cc(-c4ccc(OC)cc4)nc3s2)C1 (stereo not given), the survival was inactive: 72%.
With Cn1c(=O)c(=O)n(C)c2cc(NC(=O)c3cccc(F)c3)c(Cl)cc21 the survival was inactive: 71%.
With CN(C)CCCN(C(=O)c1ccc(Br)s1)c1nc2ccc(F)cc2s1 the survival was active: -6%.
Cc1ccc2cccc(NC(=O)COc3cc(C)c(Cl)c(C)c3)c2n1 was tested, and the survival was inactive: 82%.
With COc1ccc(N(CC(=O)NCc2ccccc2Cl)S(=O)(=O)c2c(C)nn(C)c2C)cc1 the survival was inactive: 76%.
COc1ccc(CCNC(=O)Cn2c(=O)nc(-c3ccccc3)c3ccccc32)cc1OC was tested, and the survival was inactive: 126%.
With CCOc1ccccc1CNC(=O)CCCn1ncn2c(cc3occc32)c1=O the survival was inactive: 71%.
In the case of CCOc1ccc(C(=O)c2cn(CC(=O)Nc3ccc(F)cc3)c3cc4c(cc3c2=O)OCO4)cc1, the survival is reported as inactive: 140%.
In the case of Cc1nn(CC(=O)Nc2ccccc2C(F)(F)F)c(=O)c2cccn12, the survival is reported as inactive: 89%.
Cc1ccc(CCNC(=O)CCn2nc(-c3ccccc3)ccc2=O)cc1 was tested, and the survival was inactive: 89%.
In the case of CCCCN(CC)CCNC(=O)CN1C(=O)COc2ccc(S(=O)(=O)N3CCCC3)cc21, the survival is reported as inactive: 82%.
CCOc1ccc(C(=O)Nc2c(C(=O)c3ccc(OC)cc3)oc3ccccc23)cc1 was tested, and the survival was inactive: 64%.
For COc1ccc(NC(=O)c2ccc3nc(CCc4ccccc4)oc3c2)c(OC)c1, the survival was inactive: 121%.
In the case of Cc1ccccc1NC(=O)N1CCc2c(sc3c2CCCC3)C1c1ccccc1 (stereo not given), the survival is reported as inactive: 99%.
For O=C(NCCc1ccccc1)c1ccc(Cn2c(SCc3cccc(F)c3)nc3cccnc32)cc1, the survival was inactive: 82%.
For COCCNC(=O)CCc1c(C)nc2c(-c3ccc(F)cc3)c(C)nn2c1C, the survival was inactive: 85%.
For COc1cc(C(CC(=O)Nc2ccc(F)cc2F)N2Cc3ccccc3C2=O)cc(OC)c1OC (stereo not given), the survival was inactive: 78%.
With COc1ccc(CCNC(=O)CCCCn2c(=O)c3ccccc3n(Cc3ccccc3C)c2=O)cc1OC the survival was inactive: 135%.
For CCS(=O)(=O)c1ncc(N(Cc2ccccc2)Cc2ccco2)c(C(=O)Nc2ccc(C)c(C)c2)n1, the survival was inactive: 85%.
In the case of CCOc1ccc(NC(=O)c2ccc3c(=O)n4nc(Nc5ccccc5C)sc4nc3c2)cc1, the survival is reported as inactive: 132%.
CCc1ccccc1NC(=O)Cn1c(=O)n(-c2ccc(C)cc2)c(=O)c2c1c1cc(C)ccc1n2C was tested, and the survival was inactive: 97%.
With COc1ccc(OC)c(NC(=O)c2cc3cc(C)ccc3n2C)c1 the survival was inactive: 75%.
O=C(Cn1c(=O)oc2cc(Cl)ccc21)Nc1cccc(C(F)(F)F)c1 was tested, and the survival was inactive: 85%.
Cc1nc2ncnn2c(C)c1CCC(=O)N1CCN(c2ccccc2)CC1 was tested, and the survival was inactive: 76%.
CCC(=O)Nc1ccc(CC)cc1-c1nc2ccccc2n(CC(=O)Nc2cccc(Cl)c2)c1=O was tested, and the survival was inactive: 64%.
For COc1cccc(C(=O)N2CCN(C3CCC(c4ccccc4)CC3)CC2)c1OC (stereo not given), the survival was inactive: 108%.
With CCCCCn1cc2c(c1-c1ccc(Br)cc1)c(=O)n(C)c(=O)n2C the survival was inactive: 89%.
In the case of Cc1ccc(-c2cc(C(F)F)n3ncc(C(=O)Nc4cn(C)nc4C)c3n2)cc1, the survival is reported as inactive: 112%.
Cc1ccccc1CSc1nc2cc(C(=O)NC3CCCC3)ccc2c(=O)n1Cc1ccccc1 was tested, and the survival was inactive: 94%.
In the case of Cc1cc2c(cc1C)NC(CC(=O)Nc1ccccc1)C(=O)N2 (stereo not given), the survival is reported as inactive: 83%.
With Cc1ccc(O)c(NC(=O)c2ccc(Br)c(S(=O)(=O)N3CCCCC3)c2)c1 the survival was inactive: 69%.
In the case of CCN(Cc1ccccc1)C(=O)Cn1cc(S(=O)(=O)Cc2cccc(Cl)c2)c2ccccc21, the survival is reported as inactive: 75%.
